# In PubChem BioAssay AID504332 (National Center for Advancing Translational Sciences (NCATS), 2011):
# Hit rate of the full screen: of about 350,000 compounds, about 31,000 (8.9%) were called active. Inconclusive means that the source gave no clear call. Such entries were picked first, then a sample of the others. Calls come from the whole dose curve; as a rule, active = well fitted inhibition curve with a large enough effect; inconclusive = small, poorly fitted or top-dose-only effect; inactive = no such curve, though single readings can be large or run the other way. Potencies of inconclusive entries are doubtful fits and often do not repeat.
# Biological target: Histone-lysine N-methyltransferase EHMT2 (Homo sapiens) (UniProt Q96KQ7)
# Chain of UniProt Q96KQ7 (Q96KQ7 whole entry, looked up): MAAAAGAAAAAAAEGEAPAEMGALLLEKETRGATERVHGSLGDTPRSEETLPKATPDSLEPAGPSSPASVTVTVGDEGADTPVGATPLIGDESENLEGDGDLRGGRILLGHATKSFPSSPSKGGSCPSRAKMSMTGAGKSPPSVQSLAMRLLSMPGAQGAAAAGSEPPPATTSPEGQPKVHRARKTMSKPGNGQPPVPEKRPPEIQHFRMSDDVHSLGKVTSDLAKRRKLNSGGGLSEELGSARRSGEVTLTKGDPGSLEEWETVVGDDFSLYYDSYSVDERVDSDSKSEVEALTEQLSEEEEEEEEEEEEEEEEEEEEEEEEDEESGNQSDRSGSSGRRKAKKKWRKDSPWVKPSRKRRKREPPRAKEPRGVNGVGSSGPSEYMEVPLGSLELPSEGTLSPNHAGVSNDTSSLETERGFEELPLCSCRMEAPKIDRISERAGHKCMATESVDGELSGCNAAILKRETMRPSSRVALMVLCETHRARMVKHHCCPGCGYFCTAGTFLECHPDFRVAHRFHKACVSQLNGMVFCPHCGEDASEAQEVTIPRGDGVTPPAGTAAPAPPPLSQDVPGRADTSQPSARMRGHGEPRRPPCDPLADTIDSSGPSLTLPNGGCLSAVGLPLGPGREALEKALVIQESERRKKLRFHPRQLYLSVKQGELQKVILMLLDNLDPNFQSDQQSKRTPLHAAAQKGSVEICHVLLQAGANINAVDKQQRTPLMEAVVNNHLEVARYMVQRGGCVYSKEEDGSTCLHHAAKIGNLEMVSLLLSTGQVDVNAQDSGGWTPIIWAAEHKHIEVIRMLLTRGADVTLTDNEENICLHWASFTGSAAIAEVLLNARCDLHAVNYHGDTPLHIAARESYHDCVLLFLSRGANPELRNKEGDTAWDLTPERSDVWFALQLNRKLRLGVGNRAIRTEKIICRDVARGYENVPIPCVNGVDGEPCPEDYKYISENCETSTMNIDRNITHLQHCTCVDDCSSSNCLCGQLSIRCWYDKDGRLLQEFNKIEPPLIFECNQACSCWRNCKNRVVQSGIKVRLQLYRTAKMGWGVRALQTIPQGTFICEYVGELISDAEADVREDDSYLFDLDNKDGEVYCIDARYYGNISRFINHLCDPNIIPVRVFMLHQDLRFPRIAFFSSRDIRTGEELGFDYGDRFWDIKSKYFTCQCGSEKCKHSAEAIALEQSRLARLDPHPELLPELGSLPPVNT
# Experiment: qHTS Assay for Inhibitors of Histone Lysine Methyltransferase G9a; note: nearly all actives have a fitted effect of over 75% in size
# Conditions: G9a H3K9 monomethylation, AlphaScreen, 2 h; activity, negative = inhibition: at 59 µM (top of the series) unless noted
# In short: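 Using a bead-based AlphaScreen, monomethylated H3K9 product from 2 h room-temperature reactions (G9a 20 nM, peptide 500 nM, SAM 20 uM) was detected with 0.5 ug/mL rabbit anti-H3K9me1 antibody.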
# % is set by controls: 0 for no effect and ±100 for the full control effect; potency is the fitted concentration of half-maximal effect; tags give direction and shape of the fitted curve.
Structure (SMILES),Potency,"activity, negative = inhibition"
Cc1ccc(S(=O)(=O)c2nc(-c3ccccc3)oc2NCCCN2CCOCC2)cc1,"inconclusive: 50.1 µM [inhibitor, partial curve, poor fit]",–
O=C(CCCN1C(=O)/C(=C/c2cccs2)SC1=S)Nc1ccc(C(=O)O)cc1,"inconclusive: 35.5 µM [inhibitor, partial curve]",–
O=C(/C=C/c1cn(CC(O)CN2CCc3ccccc32)c2ccccc12)c1ccc(Br)cc1 (stereo unspecified),"inconclusive: 35.5 µM [inhibitor, partial curve, poor fit]",–
O=C1c2ccccc2C(Nc2ccc(S(=O)(=O)N3CCCCCC3)cc2)N1Cc1ccco1 (stereo unspecified),"inconclusive: 89.1 µM [inhibitor, single point]",–
Cc1ccccc1OCCNc1cc(N2CC(C)NC(C)C2)ccc1[N+](=O)[O-] (stereo unspecified),active: 39.8 µM,–
COc1cc(/C=C2\SC(=O)N(CCN)C2=O)ccc1OS(=O)(=O)c1cc(C)ccc1C,active: 28.2 µM,–
CCOC(=O)C1CCN(S(=O)(=O)c2ccc3c(c2)CC(=O)N3C)CC1,active: 44.7 µM,–
COc1ccc(C(=O)c2sc(Nc3ccc(NC(C)=O)cc3)nc2C)cc1,"inconclusive: 79.4 µM [inhibitor, partial curve, poor fit]",–
CCOC(=O)c1c(-c2cccc([N+](=O)[O-])c2)csc1N,"inconclusive: 28.2 µM [inhibitor, single point]",–
CCOc1ccccc1CNC(=O)CCNS(=O)(=O)c1ccc2[nH]c(=O)oc2c1,inactive,–
Cc1ccc(S(=O)(=O)N2CCN(C(=O)/C=C/c3ccco3)CC2)cc1,active: 44.7 µM,–
CCOC(=O)C#CC(CCc1ccccc1)OS(N)(=O)=O (stereo unspecified),"inconclusive: 89.1 µM [inhibitor, single point]",–
COc1cc(CN2CC(=O)N(c3ccc(C)cc3)C2=S)cc(OC)c1OC,"inconclusive: 100 µM [inhibitor, single point]",–
CC(=O)N1CCc2cc(S(=O)(=O)NC(CC(C)C)C(=O)N3CCc4ccccc4C3)ccc21 (stereo unspecified),"inconclusive: 39.8 µM [inhibitor, partial curve, poor fit]",–
O=C(O)Cn1nc(-c2ccccc2)oc1=O,"inconclusive: 39.8 µM [inhibitor, partial curve, poor fit]",–
CCCC(C)NC(=O)c1ccc2[nH]c3c(c2c1)CC(C)CC3 (stereo unspecified),"inconclusive: 1.12 µM [inhibitor, partial curve, poor fit]",–
O=C1c2ccccc2C(Nc2cccnc2)N1Cc1ccccc1Cl (stereo unspecified),"inconclusive: 63.1 µM [inhibitor, partial curve, poor fit]",–
CCOc1ccc(OCC(=O)c2c(O)c3ccccc3oc2=O)cc1,active: 3.16 µM,–
O=C(NNc1nc2cc3c(cc2s1)OCO3)c1ccc(F)cc1,active: 8.91 µM,–
O=C(CN1N=C(c2ccccc2)CCC1=O)NCCN1CCc2ccccc2C1,"inconclusive: 20 µM [inhibitor, single point]",–
O=C(CCCc1nc2ccccc2s1)N1CCN(c2ccccc2)CC1,"inconclusive: 28.2 µM [inhibitor, single point]",–
CCn1c(CNC(=O)c2ccco2)nnc1SCC(=O)Nc1cc(C(F)(F)F)ccc1Cl,–,inconclusive: -54.9% [inhibitor]
Cc1cc(C)c(NC(=O)CCCn2c(=O)oc3ccccc32)c(C)c1,–,inactive: 22.2% [at 12.7 µM]
COc1cc(NC(=O)c2ccc(Cl)cc2)c(OC)cc1NC(=O)CN1CCCCC1,active: 50.1 µM,–

Structure (SMILES),Potency,"activity, negative = inhibition"
CCOC(=O)CSc1ccc2nnc(-c3cccnc3)n2n1,active: 17.8 µM,–
CCN(CC)S(=O)(=O)c1ccc2oc(SCC3CN=C(c4ccc(OC)cc4)S3)nc2c1 (stereo unspecified),"inconclusive: 39.8 µM [inhibitor, single point]",–
COc1ccc(/C=C2\Sc3ccc(C(=O)NCCN4CCCCCC4)cc3N(C)C2=O)cc1,active: 22.4 µM,–
CCCS(=O)(=O)c1nc(S(=O)(=O)c2ccc(Cl)cc2)c(N2CCC(O)CC2)s1,"inconclusive: 89.1 µM [inhibitor, single point]",–
Cc1ccc(-c2cc(C(=O)N3CCC(C)CC3)c3ccccc3n2)cc1,inactive,–
O=C(CSc1nncs1)Nc1cc(S(=O)(=O)N2CCOCC2)ccc1N1CCCC1,active: 35.5 µM,–
Cc1cc(O)cc(O)c1C(=O)Cc1ccccc1,inactive,–
Cc1nn(C)c(N)c1-c1ccccc1,"inconclusive: 79.4 µM [inhibitor, partial curve, poor fit]",–
Cc1c(Cl)c([N+](=O)[O-])nn1CCCC(=O)O,"inconclusive: 50.1 µM [inhibitor, partial curve]",–
CCOc1ccccc1-n1c(SCC(=O)NC(C)CC)nnc1-c1ccoc1C (stereo unspecified),"inconclusive: 14.1 µM [inhibitor, partial curve]",–
COc1ccc(S(=O)(=O)N(C)CC(=O)NCCC2=CCCCC2)cc1OC,"inconclusive: 2 µM [inhibitor, partial curve, poor fit]",–
CCOC(=O)c1ccc(N2C(=O)C3CCCN3C2=S)cc1 (stereo unspecified),–,inactive: 1.12% [at 12.7 µM]
CC(C(=O)O)N(c1ccccc1Cl)S(C)(=O)=O (stereo unspecified),–,inactive: 7.87% [at 2.33 µM]
CCn1cc(C(=O)O)c(=O)c2cc(Br)ccc21,"inconclusive: 3.16 µM [inhibitor, single point]",–
O=C(O)CSc1nnc(COc2cccc3cccnc23)n1-c1cccc(C(F)(F)F)c1,"inconclusive: 89.1 µM [inhibitor, partial curve, poor fit]",–
CN1CCN(S(=O)(=O)c2cccc(C(=O)O)c2)CC1,inactive,–
CNc1nc(-c2ccc(OC)cc2)c(-c2ccc(OC)cc2)s1,"inconclusive: 44.7 µM [inhibitor, partial curve, poor fit]",–
CCc1nnc(NC(=O)CSc2nnc(-c3ccccc3O)n2-c2ccc(C)cc2)s1,"inconclusive: 79.4 µM [inhibitor, partial curve, poor fit]",–
NS(=O)(=O)c1cnccc1Nc1ccc(Cl)c(Cl)c1,"inconclusive: 39.8 µM [inhibitor, single point]",–
O=C(c1ccc(F)c(F)c1)N1CCC2(CC1)NCCc1[nH]cnc12,inactive,–
Cc1ccc(CN(C)C(=O)c2ccc3c(c2)NC(=O)CS3)o1,–,inconclusive: -89.5% [inhibitor]
CCOC(=O)N1CCN(C(=O)c2ccc3c(c2)N(Cc2ccccc2)CCS3)CC1,"inconclusive: 89.1 µM [inhibitor, single point]",–
Cc1c(CNCCCc2ccccc2)c(C(=O)O)c(C)n1Cc1cccc(Cl)c1,inactive,–
Cc1ccc2c(CC(=O)OCC(=O)N(CC(C)C)c3c(N)n(Cc4ccccc4)c(=O)[nH]c3=O)coc2c1,"inconclusive: 70.8 µM [inhibitor, single point]",–

Structure (SMILES),Potency,"activity, negative = inhibition"
CCCCCC1NC(=O)NC1CCCCCC(=O)O (stereo unspecified),–,inactive: 0.515% [at 12.7 µM]
COc1ccc(-c2nn(C)c3sc(C(=O)N4CCN(c5cccc(Cl)c5)CC4)cc23)cc1OC,"inconclusive: 7.94 µM [inhibitor, partial curve, poor fit]",–
CC1CCc2c(sc(NC(=O)c3cc(-c4ccc(Br)cc4)on3)c2C(N)=O)C1 (stereo unspecified),inactive,–
COc1ccc(OC)c(/C=N/NC(=O)c2ccc(=O)[nH]n2)c1,inactive,–
O=C(O)CO.[NH2-].[NH2-].[Pt+2],"inconclusive: 8.91 µM [inhibitor, single point]",–
O=C(O)Cn1nnnc1SCC(=O)Nc1ccc(F)cc1F,"inconclusive: 31.6 µM [inhibitor, full curve, poor fit]",–
CCN(Cc1ccncc1)C(=O)CC1C(=O)NCCN1Cc1ccc(F)c(F)c1 (stereo unspecified),"inconclusive: 35.5 µM [inhibitor, partial curve]",–
O=[N+]([O-])c1ccc(N2CCCCC2)c(-c2nn[nH]n2)c1,active: 44.7 µM,–
Cc1nc(Nc2cccc(C(C)O)c2)c2nnn(Cc3ccccc3F)c2n1 (stereo unspecified),inactive,–
COc1ccc2c(c1)S/C(=C\C(=O)c1ccncc1)N2C,"inconclusive: 28.2 µM [inhibitor, single point]",–
CC(C)NC(=O)CSc1ncccc1-c1nc2ccccc2[nH]1,"inconclusive: 79.4 µM [inhibitor, single point]",–
CCC(=O)Nc1cccc(C(=O)/C=C/c2cc(Br)ccc2OC)c1,inactive,–
COCC(=O)OCC(=O)c1cc(C)n(-c2ccc(Br)cc2)c1C,"inconclusive: 50.1 µM [inhibitor, partial curve]",–
COc1ccc(CCN2C(=S)N(c3ccc(Cl)cc3)C(=O)C2CC(N)=O)cc1OC (stereo unspecified),inactive,–
CCCCN(C)C(=O)c1nc2ccccn2c1CN1CCC[C@H]1CO,inactive,–
Cc1ccc(OCc2cc(=O)n3cc(C)sc3n2)c(C)c1,inactive,–
Cc1cccc(NC(=O)/C(C#N)=C\c2cccnc2)c1,active: 50.1 µM,–
O=C(NCCc1ccccc1)C1CCN(Cc2ccccc2F)CC1,active: 7.94 µM,–
O=C(O)c1ccc(N/N=C/c2ccc(-c3ccc(Cl)cc3Cl)o2)cc1,"inconclusive: 79.4 µM [inhibitor, single point]",–
c1cc(CNCC2CCCO2)ccn1 (stereo unspecified),"inconclusive: 44.7 µM [inhibitor, partial curve, poor fit]",–
O=C1C2C(c3ccccc3)C=CC(c3ccccc3)C2C(=O)N1CCO (stereo unspecified),inactive,–
COC(=O)c1c(NC(=O)COC(=O)c2ccccc2O)sc2c1CCCCC2,"inconclusive: 22.4 µM [inhibitor, single point]",–
CCN1CCN(C(=O)c2c(C)nn(-c3ccc(F)cc3)c2-n2cccc2)CC1,inactive,–
